According to the supplement of paper PMC8728848:
Some of the results follow.

Legend:
Assay in all cases: glycan array binding signal (z-score within array); higher = stronger binding
Details in all cases: glycan notation: IUPAC condensed, linker removed
[1] = molecular target: Neu5Ac(a2-3)Gal6S(b1-4)[Fuc(a1-3)]GlcNAc
Outline: (§1)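 Glycan array data came from 3228 arrays in the Consortium for Functional Glycomics database, and only arrays with an available protein sequence were kept. Glycan names were put into IUPAC-condensed notation, and columns mapping to the same glycan were averaged. The binding signal is a within-array Z-score, averaged across arrays of one protein sequence run at different concentrations or buffers and across linkers. A negative Z-score can be read as non-binding.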

Neu5Ac(a2-3)GalNAc = molecular target: Neu5Ac(a2-3)GalNAc
Outline: as §1

[2] = molecular target: Neu5Ac(a2-3)GalNAc(b1-4)GlcNAc
Outline: as §1

[3] = molecular target: Neu5Ac(a2-3)[GalNAc(b1-4)]Gal(b1-4)Glc
Outline: as §1

[4] = molecular target: Neu5Ac(a2-3)[GalNAc(b1-4)]Gal(b1-4)GlcNAc
Outline: as §1

[5] = molecular target: Neu5Ac(a2-3)[GalNAc(b1-4)]Gal(b1-4)GlcNAc(b1-3)GalNAc
Outline: as §1

[6] = molecular target: Neu5Ac(a2-3)[Neu5Ac(a2-6)]GalNAc
Outline: as §1

Neu5Ac(a2-6)Gal = molecular target: Neu5Ac(a2-6)Gal
Outline: as §1

[7] = molecular target: Neu5Ac(a2-6)Gal(b1-3)GlcNAc(b1-3)[Gal(b1-4)GlcNAc(b1-6)]Gal(b1-4)Glc
Outline: as §1

Neu5Ac(a2-6)Gal(b1-4)Glc = molecular target: Neu5Ac(a2-6)Gal(b1-4)Glc
Outline: as §1

[8] = molecular target: Neu5Ac(a2-6)Gal(b1-4)GlcNAc
Outline: as §1

[9] = molecular target: Neu5Ac(a2-6)Gal(b1-4)GlcNAc(b1-2)Man(a1-3)Man(b1-4)GlcNAc(b1-4)GlcNAc
Outline: as §1

[10] = molecular target: Neu5Ac(a2-6)Gal(b1-4)GlcNAc(b1-2)Man(a1-3)[Gal(b1-4)GlcNAc(b1-2)Man(a1-6)]Man(b1-4)GlcNAc(b1-4)GlcNAc
Outline: as §1

[11] = molecular target: Neu5Ac(a2-6)Gal(b1-4)GlcNAc(b1-2)Man(a1-3)[GlcNAc(b1-2)Man(a1-6)]Man(b1-4)GlcNAc(b1-4)GlcNAc
Outline: as §1

[12] = molecular target: Neu5Ac(a2-6)Gal(b1-4)GlcNAc(b1-2)Man(a1-3)[GlcNAc(b1-2)Man(b1-4)GlcNAc(b1-2)Man(a1-6)]Man(b1-4)GlcNAc(b1-4)GlcNAc
Outline: as §1

[13] = molecular target: Neu5Ac(a2-6)Gal(b1-4)GlcNAc(b1-2)Man(a1-3)[Man(a1-6)]Man(b1-4)GlcNAc(b1-4)GlcNAc
Outline: as §1

[14] = molecular target: Neu5Ac(a2-6)Gal(b1-4)GlcNAc(b1-2)Man(a1-3)[Neu5Ac(a2-6)Gal(b1-4)GlcNAc(b1-2)Man(a1-6)]Man(b1-4)GlcNAc(b1-4)GlcNAc
Outline: as §1

[15] = molecular target: Neu5Ac(a2-6)Gal(b1-4)GlcNAc(b1-2)Man(a1-3)[Neu5Ac(a2-6)Gal(b1-4)GlcNAc(b1-2)Man(a1-6)]Man(b1-4)GlcNAc(b1-4)[Fuc(a1-6)]GlcNAc
Outline: as §1

[16] = molecular target: Neu5Ac(a2-6)Gal(b1-4)GlcNAc(b1-2)Man(a1-6)Man(b1-4)GlcNAc(b1-4)GlcNAc
Outline: as §1

[17] = molecular target: Neu5Ac(a2-6)Gal(b1-4)GlcNAc(b1-2)Man(a1-6)[Gal(b1-4)GlcNAc(b1-2)Man(a1-3)]Man(b1-4)GlcNAc(b1-4)GlcNAc
Outline: as §1

[18] = molecular target: Neu5Ac(a2-6)Gal(b1-4)GlcNAc(b1-2)Man(a1-6)[GlcNAc(b1-2)Man(a1-3)]Man(b1-4)GlcNAc(b1-4)GlcNAc
Outline: as §1

[19] = molecular target: Neu5Ac(a2-6)Gal(b1-4)GlcNAc(b1-2)Man(a1-6)[Man(a1-3)]Man(b1-4)GlcNAc(b1-4)GlcNAc
Outline: as §1

[20] = molecular target: Neu5Ac(a2-6)Gal(b1-4)GlcNAc(b1-3)Gal(b1-3)GlcNAc
Outline: as §1

[21] = molecular target: Neu5Ac(a2-6)Gal(b1-4)GlcNAc(b1-3)Gal(b1-4)GlcNAc
Outline: as §1

[22] = molecular target: Neu5Ac(a2-6)Gal(b1-4)GlcNAc(b1-3)Gal(b1-4)GlcNAc(b1-3)Gal(b1-4)GlcNAc
Outline: as §1

[23] = molecular target: Neu5Ac(a2-6)Gal(b1-4)GlcNAc(b1-3)Gal(b1-4)[Fuc(a1-3)]GlcNAc(b1-3)Gal(b1-4)[Fuc(a1-3)]GlcNAc
Outline: as §1

[24] = molecular target: Neu5Ac(a2-6)Gal(b1-4)GlcNAc(b1-3)GalNAc
Outline: as §1

[25] = molecular target: Neu5Ac(a2-6)Gal(b1-4)GlcNAc(b1-3)[Neu5Ac(a2-6)Gal(b1-4)GlcNAc(b1-6)]GalNAc
Outline: as §1

[26] = molecular target: Neu5Ac(a2-6)Gal(b1-4)GlcNAc(b1-6)GalNAc
Outline: as §1

[27] = molecular target: Neu5Ac(a2-6)Gal(b1-4)GlcNAc(b1-6)[Gal(b1-3)GlcNAc(b1-3)]Gal(b1-4)Glc
Outline: as §1

[28] = molecular target: Neu5Ac(a2-6)Gal(b1-4)GlcNAc6S
Outline: as §1

Neu5Ac(a2-6)GalNAc = molecular target: Neu5Ac(a2-6)GalNAc
Outline: as §1

[29] = molecular target: Neu5Ac(a2-6)GalNAc(b1-4)GlcNAc
Outline: as §1

[30] = molecular target: Neu5Ac(a2-6)GalNAc(b1-4)GlcNAc6S
Outline: as §1

[31] = molecular target: Neu5Ac(a2-6)GlcNAc(b1-4)GlcNAc
Outline: as §1

[32] = molecular target: Neu5Ac(a2-6)GlcNAc(b1-4)GlcNAc(b1-4)GlcNAc
Outline: as §1

Neu5Ac(a2-8)Neu5Ac = molecular target: Neu5Ac(a2-8)Neu5Ac
Outline: as §1

[33] = molecular target: Neu5Ac(a2-8)Neu5Ac(a2-3)Gal(b1-3)GalNAc(b1-4)[Neu5Ac(a2-8)Neu5Ac(a2-3)]Gal(b1-4)Glc
Outline: as §1

[34] = molecular target: Neu5Ac(a2-8)Neu5Ac(a2-3)Gal(b1-4)Glc
Outline: as §1

[35] = molecular target: Neu5Ac(a2-8)Neu5Ac(a2-3)[Gal(b1-3)GalNAc(b1-4)]Gal(b1-4)Glc
Outline: as §1

[36] = molecular target: Neu5Ac(a2-8)Neu5Ac(a2-3)[GalNAc(b1-4)]Gal(b1-4)Glc
Outline: as §1

[37] = molecular target: Neu5Ac(a2-8)Neu5Ac(a2-8)Neu5Ac
Outline: as §1

[38] = molecular target: Neu5Ac(a2-8)Neu5Ac(a2-8)Neu5Ac(a2-3)Gal(b1-4)Glc
Outline: as §1

[39] = molecular target: Neu5Ac(a2-8)Neu5Ac(a2-8)Neu5Ac(a2-3)[GalNAc(b1-4)]Gal(b1-4)Glc
Outline: as §1

[40] = molecular target: Neu5Ac(a2-8)Neu5Ac(a2-8)Neu5Ac(a2-8)Neu5Ac(a2-3)[GalNAc(b1-4)]Gal(b1-4)Glc
Outline: as §1

[41] = molecular target: Neu5Ac(b2-6)Gal(b1-4)GlcNAc
Outline: as §1

Neu5Ac(b2-6)GalNAc = molecular target: Neu5Ac(b2-6)GalNAc
Outline: as §1

[42] = molecular target: Neu5Ac9Ac(a2-3)Gal(b1-3)GlcNAc
Outline: as §1

[43] = molecular target: Neu5Ac9Ac(a2-3)Gal(b1-4)GlcNAc
Outline: as §1

[44] = molecular target: Neu5Ac9Ac(a2-6)Gal(b1-4)GlcNAc
Outline: as §1

[45] = molecular target: Neu5Gc(a2-3)Gal(b1-3)GlcNAc
Outline: as §1

[46] = molecular target: Neu5Gc(a2-3)Gal(b1-3)[Fuc(a1-4)]GlcNAc
Outline: as §1

Neu5Gc(a2-3)Gal(b1-4)Glc = molecular target: Neu5Gc(a2-3)Gal(b1-4)Glc
Outline: as §1

[47] = molecular target: Neu5Gc(a2-3)Gal(b1-4)GlcNAc
Outline: as §1

[48] = molecular target: Neu5Gc(a2-3)Gal(b1-4)[Fuc(a1-3)]GlcNAc
Outline: as §1

[49] = molecular target: Neu5Gc(a2-6)Gal(b1-4)GlcNAc
Outline: as §1

Neu5Gc(a2-6)GalNAc = molecular target: Neu5Gc(a2-6)GalNAc
Outline: as §1

[50] = molecular target: Neu5Gc(b2-6)Gal(b1-4)GlcNAc
Outline: as §1

B1: SalT (Orysata sativa) (protein)
chain: MTLVKIGLWGGNGGSAQDISVPPKKLLGVTIYSSDAIRSIAFNYIGVDGQEYAIGPWGGGEGTSTEIKLGSSEHIKEISGTHGPVYDLADIVTYLKIVTSANNTYEAGVPNGKEFSIPLQDSGHVVGFFGRSGTLIDAIGIYVHPILEQKLISEEDLNSAVDHHHHHH
For B1, the “glycan array binding signal (z-score)” value [1] was -0.311, the “glycan array binding signal (z-score)” value (Neu5Ac(a2-3)GalNAc) was -0.31 and the “glycan array binding signal (z-score)” value [2] was -0.309. For the same binder, the “glycan array binding signal (z-score)” value [3] was -0.31, the “glycan array binding signal (z-score)” value [4] was -0.309 and the “glycan array binding signal (z-score)” value [5] was -0.306. For the same binder, the “glycan array binding signal (z-score)” value [6] was -0.306, the “glycan array binding signal (z-score)” value (Neu5Ac(a2-6)Gal) was -0.305 and the “glycan array binding signal (z-score)” value [7] was -0.31. For the same binder, the “glycan array binding signal (z-score)” value (Neu5Ac(a2-6)Gal(b1-4)Glc) was -0.307, the “glycan array binding signal (z-score)” value [8] was -0.305 and the “glycan array binding signal (z-score)” value [9] was 3.25. For the same binder, the “glycan array binding signal (z-score)” value [10] was 3.49, the “glycan array binding signal (z-score)” value [11] was 2.8 and the “glycan array binding signal (z-score)” value [12] was 2.98. The “glycan array binding signal (z-score)” value [13] was 2.99, the “glycan array binding signal (z-score)” value [14] was 2.81 and the “glycan array binding signal (z-score)” value [15] was 0.435. For the same binder, the “glycan array binding signal (z-score)” value [16] was -0.309, the “glycan array binding signal (z-score)” value [17] was 2.52 and the “glycan array binding signal (z-score)” value [18] was 3.37. For the same binder, the “glycan array binding signal (z-score)” value [19] was 4.96, the “glycan array binding signal (z-score)” value [20] was -0.304 and the “glycan array binding signal (z-score)” value [21] was -0.306. For the same binder, the “glycan array binding signal (z-score)” value [22] was -0.304, the “glycan array binding signal (z-score)” value [23] was -0.305 and the “glycan array binding signal (z-score)” value [24] was -0.296. For the same binder, the “glycan array binding signal (z-score)” value [25] was -0.307, the “glycan array binding signal (z-score)” value [26] was -0.306 and the “glycan array binding signal (z-score)” value [27] was -0.309. For the same binder, the “glycan array binding signal (z-score)” value [28] was -0.31, the “glycan array binding signal (z-score)” value (Neu5Ac(a2-6)GalNAc) was -0.307 and the “glycan array binding signal (z-score)” value [29] was -0.309. For the same binder, the “glycan array binding signal (z-score)” value [30] was -0.303, the “glycan array binding signal (z-score)” value [31] was -0.308 and the “glycan array binding signal (z-score)” value [32] was -0.304. The “glycan array binding signal (z-score)” value (Neu5Ac(a2-8)Neu5Ac) was -0.308, the “glycan array binding signal (z-score)” value [33] was -0.306 and the “glycan array binding signal (z-score)” value [34] was -0.31. For the same binder, the “glycan array binding signal (z-score)” value [35] was -0.298, the “glycan array binding signal (z-score)” value [36] was -0.305 and the “glycan array binding signal (z-score)” value [37] was -0.307. For the same binder, the “glycan array binding signal (z-score)” value [38] was -0.307, the “glycan array binding signal (z-score)” value [39] was -0.307 and the “glycan array binding signal (z-score)” value [40] was -0.309. The “glycan array binding signal (z-score)” value [41] was -0.303, the “glycan array binding signal (z-score)” value (Neu5Ac(b2-6)GalNAc) was -0.31 and the “glycan array binding signal (z-score)” value [42] was -0.312. For the same binder, the “glycan array binding signal (z-score)” value [43] was -0.309, the “glycan array binding signal (z-score)” value [44] was -0.308 and the “glycan array binding signal (z-score)” value [45] was -0.305. The “glycan array binding signal (z-score)” value [46] was -0.309, the “glycan array binding signal (z-score)” value (Neu5Gc(a2-3)Gal(b1-4)Glc) was -0.305 and the “glycan array binding signal (z-score)” value [47] was -0.312. For the same binder, the “glycan array binding signal (z-score)” value [48] was -0.307, the “glycan array binding signal (z-score)” value [49] was -0.308 and the “glycan array binding signal (z-score)” value (Neu5Gc(a2-6)GalNAc) was -0.309. The “glycan array binding signal (z-score)” value [50] was -0.308.
